Measurements from PMC6919601, “Identification of Plasmodium dipeptidyl aminopeptidase allosteric inhibitors by high throughput screening” (PLoS ONE, 2019).
Several values for one entry are separate records, joined by “and”; a condition that tells them apart may be missing. Equal entries are not always repeated. The whole screen tested about 110,000 compounds, of which about 230 (0.21%) showed an effect of 50% or more. The list shows a part of the results.

These compounds were tested against DPAP1 (Plasmodium falciparum, UniProt Q8IIJ9) (assay: primary screen, percent inhibition; read by cleavage of a fluorogenic dipeptide substrate; higher = more effect of the substance).
Chain of DPAP1 (Q8IIJ9 whole entry, looked up): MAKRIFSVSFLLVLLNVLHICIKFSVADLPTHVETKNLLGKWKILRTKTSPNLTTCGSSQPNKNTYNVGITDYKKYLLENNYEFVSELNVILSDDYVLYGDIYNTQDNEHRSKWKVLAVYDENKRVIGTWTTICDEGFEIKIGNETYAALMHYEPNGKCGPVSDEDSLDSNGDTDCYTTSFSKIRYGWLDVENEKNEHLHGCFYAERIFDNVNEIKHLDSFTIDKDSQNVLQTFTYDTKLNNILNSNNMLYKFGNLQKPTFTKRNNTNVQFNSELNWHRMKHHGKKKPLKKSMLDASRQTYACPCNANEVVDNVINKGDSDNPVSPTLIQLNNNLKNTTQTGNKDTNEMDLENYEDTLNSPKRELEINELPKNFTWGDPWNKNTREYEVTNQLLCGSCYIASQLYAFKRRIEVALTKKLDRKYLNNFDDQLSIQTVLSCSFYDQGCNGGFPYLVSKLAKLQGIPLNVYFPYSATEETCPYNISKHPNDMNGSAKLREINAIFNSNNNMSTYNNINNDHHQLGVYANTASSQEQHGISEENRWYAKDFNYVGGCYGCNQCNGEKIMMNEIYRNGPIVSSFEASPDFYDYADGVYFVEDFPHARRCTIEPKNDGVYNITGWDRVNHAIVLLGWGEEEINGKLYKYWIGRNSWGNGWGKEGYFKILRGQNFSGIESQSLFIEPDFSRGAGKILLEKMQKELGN
Design: species or system P. falciparum D10 trophozoite lysates; single well
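Further: 30 min substrate incubation versus DMSO and 10 µM JCP410 controls.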

| SMILES | % Inhibition @ 10 uM |
| --- | --- |
| Cc1ccc(C(=O)Nc2ccc(C(N)=O)cc2)cc1Br | 1.62% |
| COc1ccc(N(CC(=O)N2CCCCC2)S(C)(=O)=O)c(OC)c1 | -4.88% |
| Cc1ccc(C2=N/C(=C\c3cccs3)C(=O)O2)cc1 | -2.78% |
| CCOc1ccc(CC(=O)Nc2ccc(Br)cc2)cc1OCC | 2.95% |
| O=C(CCn1nc(-c2ccc(Cl)cc2)c2ccccc2c1=O)N1CCCCC1 | 2.25% |
| COc1cc(CNC(=O)OCC(C)C)cc(OC)c1OC | 0.983% |
| COc1cccc(N/C=C(\C#N)C(=O)NC(C)=O)c1 | -1.06% |
| CC(C)OCCCNC(=O)C1CCN(S(C)(=O)=O)CC1 | 5.23% |
| CC(C)(C)c1cc(/C=C2\NC(=O)NC2=O)cc(C(C)(C)C)c1O | 6.27% |
| C#CCOc1ccc(C2C3=C(CCCC3=O)N(CCC(=O)O)C3=C2C(=O)CCC3)cc1 | -7.08% |
| Cc1ccc(C2=CC(c3c(F)cccc3Cl)n3ncnc3N2)cc1 (stereo not drawn) | 3.32% |
| CC1(C)Cc2c(c3ccccc3n2-c2ccccc2)C(C)(C)N1 | -5.51% |
| Cc1ccc(-c2nc(SCCOc3ccc(Cl)cc3)n3[nH]c(=O)cc3n2)cc1 | -5.33% |
| CCN(CC)CCN(C)C1CCN(CC)CC1 | -2.95% |
| O=C(Nc1ccccc1C(=O)O)c1cc(S(=O)(=O)N2CCCCCC2)ccc1Cl | -8.06% |
| CCCCc1ccc(-n2c(C)cc(/C=C3/NC(=O)NC3=O)c2C)cc1 | -1.6% |
| Cc1ccccc1S(=O)(=O)Cc1ccc(C(=O)NC2CCN(Cc3ccccc3)CC2)o1 | -2.72% |
| c1ccc2c(CN3CCN(Cc4ccncc4)CC3)c[nH]c2c1 | -1.55% |
| CC(CNc1cnn(C23CC4CC(CC(CC(=O)O)(C4)C2)C3)c(=O)c1Cl)c1ccccc1 (stereo not drawn) | 7.84% |
| COc1cc(C(=O)Nc2ccc(S(=O)(=O)Nc3ccc(C)cc3C)cc2)cc(OC)c1OC | 0.795% |
| Nc1nc(-c2sc3nc4c(cc3c2N)CCCCC4)nc(N2CCOCC2)n1 | -0.173% |
| CN1CCN(c2ccc(NC(=O)c3cccnc3Cl)cc2)CC1 | 1.92% |
| CCC(C(=O)NCCc1csc(-c2ccccc2)n1)c1ccccc1 (stereo not drawn) | 0.953% |
| O=C(Cn1ncc2c3ccccc3nc-2c1O)N1CCOCC1 | 1.66% |
| Cc1ccc(S(=O)(=O)N2CCC(C(=O)Nc3ccccc3O)CC2)cc1 | -2.22% |

| SMILES | % Inhibition @ 10 uM |
| --- | --- |
| Cc1cccn2c(=O)c3cc(C(=O)NC(c4ccccc4)c4ccccc4)n(C)c3nc12 | 2.25% |
| CCSc1nc(O)c2c(n1)N=C1CC(C)(C)CC(O)=C1C2c1cc(OC)ccc1OC (stereo not drawn) | -6.94% |
| COc1ccccc1/C=C/c1nc(-c2cc(C)nc3ccccc23)no1 | -2.19% |
| Cc1ccc2nc(O)c3cc(C(=O)N4CCC5(CC4)OCCO5)sc3c2c1 | 4.41% |
| CCc1ccc(C2C(C(=O)c3ccc4c(c3)CC(C)O4)=C(O)C(=O)N2CCN2CCOCC2)cc1 (stereo not drawn) | 5.29% |
| COc1ccc(Cl)c(Cn2c(NCCCN(C)C)nc3c2c(=O)n(C)c(=O)n3C)c1 | -6.98% |
| CSC1=NSC2=NC(=O)/C(=C\c3ccc(OS(=O)(=O)c4ccccc4)cc3)C(=N)N12 | 5.06% |
| COc1ccccc1C(=O)Nc1ccc(CN2CCOCC2)cc1 | -2.84% |
| CC1CCCCN1C1CC(=O)N(c2ccccc2)C1=O (stereo not drawn) | 5.4% |
| Clc1ccccc1CSc1nc2cccnc2[nH]1 | 3.48% |
| COCCNS(=O)(=O)c1cc(Cl)ccc1Cl | -4.4% |
| CC(C)=CCCC(C)CN1CCCC1CO (stereo not drawn) | -5.94% |
| CCOc1ccc(CN(C)CCN(C)C)cc1 | 0.827% |
| Cc1nc2ccc(S(=O)(=O)NC(CC(C)C)C(=O)NCc3ccccc3Cl)cc2s1 (stereo not drawn) | -6.91% |
| CC(Cc1cccc(C(F)(F)F)c1)N1CCN(CCO)CC1 (stereo not drawn) | 0.273% |
| CCN(CC)CCNC1C2CC3CC(C2)CC1C3 (stereo not drawn) | -3.6% |
| COC(=O)c1ccc2c(c1)CN(c1ccc(F)cc1)C2 | -10.7% |
| CCc1ccc(C2=NN(CCC(=O)NCCN3CCN(Cc4ccccc4)CC3)C(=O)CC2)cc1 | -2.72% |
| COc1ccc(C2(C#N)CCC(OC(C)=O)CC2)cc1OC (stereo not drawn) | 0.774% |
| Cc1cc(F)c(F)cc1C(=O)N1CCCCC1 | 5% |
| CC(=O)c1ccc(NC(=O)c2ccccc2F)cc1 | -2.03% |
| CCOC(=O)/C(O)=C1\C=NC2C=CC=CC12 (stereo not drawn) | -2.15% |
| COc1ccc(-c2cn3nc(N4CCCC(C(=O)N5CCOCC5)C4)sc3n2)cc1 (stereo not drawn) | -1.41% |
| O=C1CC(c2cccc(O)c2)C2=C(CC(c3ccc(F)cc3)CC2=O)N1 (stereo not drawn) | 1.97% |
| Cc1ccccc1S(=O)Cc1ccc(C(=O)NCCCN2CCCCC2)o1 (stereo not drawn) | -2.15% |

| SMILES | % Inhibition @ 10 uM |
| --- | --- |
| CC(C)CC(NC(=O)OCc1ccccc1)C(=O)NC1(C#N)CCN(C)CC1 (stereo not drawn) | 4.63% |
| Cc1cccc(NC2=NC(=O)/C(=C/c3cccn3C)S2)c1 | 4.1% |
| O=C(CN(c1cccc(Cl)c1)S(=O)(=O)c1ccccc1)Nc1ccc2c(c1)OCO2 | -3.09% |
| O=C(O)C1CCCN(S(=O)(=O)c2cccc(C(F)(F)F)c2)C1 (stereo not drawn) | -4.91% |
| Cc1ccc(C(=O)N2CCN(C)CC2)cc1Cl | -14.4% |
| COc1ccccc1-c1noc(CCC(=O)NC2CCCCC2)n1 | -0.666% |
| CCCCCCNC(=O)CCc1c(C)nc2c3c(C)cc(C)nc3nn2c1C | 5.65% |
| O=c1c2c3c(sc2nc2n1CCCC2)CCCC3 | 7.78% |
| CO/C(O)=C1\C(C)=NC2=C(C(=O)CC(c3ccccc3Cl)C2)C1c1coc2ccc(C)cc2c1=O (stereo not drawn) | 5.44% |
| CC(C)NC(C)C(O)c1ccc2c(c1)CCCC2 (stereo not drawn) | -3.57% and -1.85% |
| COc1ccc2occ(C(=O)c3ccc(/N=C(\C)N(C)C)cc3)c2c1 | 3.65% |
| O=C(Cc1ccc(Cl)cc1)NCc1ccco1 | -2.91% |
| CC1CCCC(NC(=O)c2cc(-c3ccncc3)nc3ccccc23)C1C (stereo not drawn) | 1.16% |
| COc1cccc(N(CC(=O)NCc2ccc(C)cc2)S(=O)(=O)c2ccc(C)cc2)c1 | -8.43% |
| CCO/C(O)=C1/C(C)=Nc2nc3ccccc3n2C1c1ccccc1F (stereo not drawn) | -1.52% |
| CN(C)/C=N/c1c(C(=O)c2ccccc2)sc2nccc(N(C)C)c12 | -5.98% |
| Cc1oc(-c2cccs2)nc1Cn1c(=O)cc(-c2ccccc2)c2c(C)nn(C)c21 | 4.13% |
| Clc1ccc(-c2noc3ncnc(N4CCC(N5CCCCC5)CC4)c23)cc1 | 2.54% |
| COc1ccccc1C(=O)Nc1sc2c(c1C(N)=O)CCCC2 | 3.82% |
| COc1ccc(CCNC(=O)c2ccc(CS(=O)(=O)c3ccc(Cl)cc3)o2)cc1OC | -2.72% |
| COc1ccc(N2CCN(Cc3ccc([N+](=O)[O-])s3)CC2)cc1 | -2.56% |
| O=C(O)c1ccccc1C(=O)N1CCN(c2ccccc2Cl)CC1 | 0.528% |
| O=[N+]([O-])c1ccc(CN2CCC3(C=Cc4ccccc43)CC2)cc1 | 3.35% |
| O=C(Nc1ccc(F)cc1F)c1ccco1 | -3.27% |
| COCCNC(=O)c1ccc2nc(N3CCC(C)CC3)sc2c1 | -0.637% |

| SMILES | % Inhibition @ 10 uM |
| --- | --- |
| CN(C)CCNc1nc2c(c(=O)n(C)c(=O)n2C)n1Cc1ccccc1Cl | -2.13% |
| CCOc1cc(/C=C2/C(=N)N3C=CSC3=NC2=O)cc(Cl)c1OCc1ccc2c(c1)OCO2 | 2.04% |
| Nc1nc(-c2ccccc2)cn1N | -4.27% |
| CCc1ccc(CNC(=O)C2c3ccccc3C(=O)N(C)C2c2c[nH]c3ccccc23)cc1 (stereo not drawn) | 1.76% |
| COc1cc(C2C(C#N)=C(N)OC(C)=C2C(C)=O)c([N+](=O)[O-])cc1OC (stereo not drawn) | -2.62% |
| COc1ccc(C2=C(C)C(NCCc3ccc(Cl)cc3)=NS2(=O)=O)cc1 | -6.58% |
| O=C(Nc1nccs1)c1cc2ccccc2oc1=O | 5.94% |
| Cc1ccc(CCNC(=O)c2cc(-c3ccncc3)nc3ccccc23)cc1 | -3.58% |
| CCOC(=O)C1=C(O)/C(=C\c2cc(C)n(-c3ccccc3C(F)(F)F)c2C)N=C1C | 52.7% |
| N=C1/C(=C\c2ccc(SCc3ccccc3)o2)C(=O)N=C2SC(c3cccnc3)=NN12 | -3.45% |
| Cc1nn(-c2ccc(F)cc2)c(-n2cccc2)c1C(=O)N1CCC2(CC1)OCCO2 | -4.08% |
| O=C(O)c1ccc2n[se]nc2c1 | 0.146% |
| Cc1cccc(N2C(=O)NC(=O)/C(=C/Nc3ccc(C(=O)N4CCOCC4)cc3)C2=O)c1 | -0.661% |
| CCCCNC(=O)c1cc(OC)cc(OC)c1 | -8.36% |
| Cc1sc2ccc3sccc3c2[n+]1C | 0.884% |
| COc1cc(C(=O)Nc2ccc(Br)c(Cl)c2)cc(OC)c1OC | 1.28% |
| O=C(Cc1csc(-c2ccccc2)n1)N1CCOCC1 | 7.99% |
| Cc1ccc(S(=O)(=O)N(CC(=O)NCc2ccco2)Cc2ccc(Cl)cc2Cl)cc1 | -3.26% |
| CCN(CC)C(=O)c1cc(-c2ccc(OC)cc2)on1 | -4.07% |
| COc1cccc(C(=O)Nc2noc3ccccc23)c1 | -1.11% |
| CC(=O)c1ccc(NS(=O)(=O)c2ccc(Oc3ccc([N+](=O)[O-])cc3)cc2)cc1 | -1.77% |
| CN1CCc2nc(SCc3cccc(Cl)c3)c(C#N)cc2C1 | 0.131% |
| CC(C)C[C@H](NC(=O)c1ccc(Cl)c(Br)c1)C(=O)NCC#N | 5.86% |
| Cc1c(C(=O)NCCCN2CCCC2=O)oc2ccc3c(c12)C(=O)CC1(CCC(C)CC1)O3 (stereo not drawn) | -1.08% |
